{"source": "patent US10858366B2", "about": "(priority 2016, dated 2020)", "test_in_all_cases": "microbe, parasite or virus in culture", "key": {"[1]": {"system": "NA_VIR_H1N1 (influenza virus in MDCK cells)", "details": "unidentified influenza virus, 48 h, read-out: NA_VIR_H1N1 EC50"}, "[2]": {"system": "NA_VIR_H3N2 (influenza virus in MDCK cells)", "details": "unidentified influenza virus, 48 h, read-out: NA_VIR_H3N2 EC50"}, "[3]": {"system": "NA_Hubei (influenza virus in MDCK cells)", "details": "unidentified influenza virus, 48 h, read-out: NA_Hubei EC50"}}}
{"molecule": "COCCNC(=O)c1cnc2n1C[C@H](C(c1ccccc1)c1ccccc1)n1ccc(=O)c(O)c1-2", "note": "[Example 71, (S)-6-benzhydryl-11-hydroxy-N-(2-methoxyethyl)-10-oxo-5,6-dihydro-10H-imidazo[1,2-a]pyrido[2,1-c]pyrazine-3-carboxamide]", "values": [{"measurement": "EC50", "setting": "[1]", "value": 19000, "unit": "nM"}, {"measurement": "EC50", "setting": "[2]", "value": "> 50000", "unit": "nM"}, {"measurement": "EC50", "setting": "[3]", "value": 27000, "unit": "nM"}]}
{"molecule": "N#Cc1cnc2n1C[C@H](C(c1ccccc1)c1ccccc1)n1ccc(=O)c(O)c1-2", "note": "[Example 59, (S)-6-benzhydryl-11-hydroxy-10-oxo-5,6-dihydro-10H-imidazo[1,2-a]pyrido[2,1-c]pyrazine-3-carbonitrile]", "values": [{"measurement": "EC50", "setting": "[1]", "value": 1400, "unit": "nM"}, {"measurement": "EC50", "setting": "[2]", "value": 5700, "unit": "nM"}, {"measurement": "EC50", "setting": "[3]", "value": 1200, "unit": "nM"}]}
{"molecule": "O=c1ccn2c(c1O)-c1ncc(CNC3CCCCC3)n1C[C@@H]2C(c1ccccc1)c1ccccc1", "note": "[Example 63, (S)-6-benzhydryl-3-((cyclohexylamino)methyl)-11-hydroxy-5,6-dihydro-10H-imidazo[1,2-a]pyrido[2,1-c]pyrazin-10-one]", "values": [{"measurement": "EC50", "setting": "[1]", "value": 3200, "unit": "nM"}, {"measurement": "EC50", "setting": "[2]", "value": 6100, "unit": "nM"}, {"measurement": "EC50", "setting": "[3]", "value": 3900, "unit": "nM"}]}
{"molecule": "CN(C)Cc1cnc2n1C[C@H](C(c1ccccc1)c1ccccc1)n1ccc(=O)c(O)c1-2", "note": "[Example 64, (S)-6-benzhydryl-3-((dimethylamino)methyl)-11-hydroxy-5,6-dihydro-10H-imidazo[1,2-a]pyrido[2,1-c]pyrazin-10-one]", "values": [{"measurement": "EC50", "setting": "[1]", "value": 1700, "unit": "nM"}, {"measurement": "EC50", "setting": "[2]", "value": 4300, "unit": "nM"}, {"measurement": "EC50", "setting": "[3]", "value": 2400, "unit": "nM"}]}
{"molecule": "O=c1cnn2c(c1O)-c1nccn1C[C@@H]2[C@@H](c1ccc(F)cc1)c1cccc(Br)c1", "note": "[Example 30, (S)-6-((S)-(3-bromophenyl)(4-fluorophenyl)methyl)-11-hydroxy-5,6-dihydro-10H-imidazo[2′,1′:3,4]pyrazino[1,2-b]pyridazin-10-one]", "values": [{"measurement": "EC50", "setting": "[1]", "value": 45, "unit": "nM"}, {"measurement": "EC50", "setting": "[2]", "value": 190, "unit": "nM"}, {"measurement": "EC50", "setting": "[3]", "value": 65, "unit": "nM"}]}
{"molecule": "O=c1ccn2c(c1O)-c1ncc(CN3CCOCC3)n1C[C@@H]2C(c1ccccc1)c1ccccc1", "note": "[Example 67, (S)-6-benzhydryl-11-hydroxy-3-(morpholinomethyl)-5,6-dihydro-10H-imidazo[1,2-a]pyrido[2,1-c]pyrazin-10-one]", "values": [{"measurement": "EC50", "setting": "[1]", "value": 4100, "unit": "nM"}, {"measurement": "EC50", "setting": "[2]", "value": 10000, "unit": "nM"}, {"measurement": "EC50", "setting": "[3]", "value": 3800, "unit": "nM"}]}
{"molecule": "Cn1cnc2c1CN(C(c1ccccc1)c1ccccc1)n1ccc(=O)c(O)c1-2", "note": "[Example 82, 5-benzhydryl-10-hydroxy-3-methyl-4,5-dihydroimidazo[4,5-d]pyrido[1,2-b]pyridazin-9(3H)-one]", "values": [{"measurement": "EC50", "setting": "[1]", "value": 1000, "unit": "nM"}, {"measurement": "EC50", "setting": "[2]", "value": 4000, "unit": "nM"}, {"measurement": "EC50", "setting": "[3]", "value": 1400, "unit": "nM"}]}
{"molecule": "CN(C)C(=O)c1cnc2n1C[C@H](C(c1ccccc1)c1ccccc1)n1ccc(=O)c(O)c1-2", "note": "[Example 68, (S)-6-benzhydryl-11-hydroxy-N,N-dimethyl-10-oxo-5,6-dihydro-10H-imidazo[1,2-a]pyrido[2,1-c]pyrazine-3-carboxamide]", "values": [{"measurement": "EC50", "setting": "[1]", "value": 6300, "unit": "nM"}, {"measurement": "EC50", "setting": "[2]", "value": 32000, "unit": "nM"}, {"measurement": "EC50", "setting": "[3]", "value": 17000, "unit": "nM"}]}
{"molecule": "O=c1ccn2c(c1O)-c1ncc(C(F)(F)F)n1C[C@@H]2C(c1ccccc1)c1ccccc1", "note": "[Example 58, (S)-6-benzhydryl-11-hydroxy-3-(trifluoromethyl)-5H-imidazo[1,2-a]pyrido[2,1-c]pyrazin-10(6H)-one]", "values": [{"measurement": "EC50", "setting": "[1]", "value": 200, "unit": "nM"}, {"measurement": "EC50", "setting": "[2]", "value": 1800, "unit": "nM"}, {"measurement": "EC50", "setting": "[3]", "value": 820, "unit": "nM"}]}
{"molecule": "O=c1ccn2c(c1O)-c1ncc(CO)n1C[C@@H]2C(c1ccccc1)c1ccccc1", "note": "[Example 54, (S)-6-benzhydryl-11-hydroxy-3-(hydroxymethyl)-5,6-dihydro-10H-imidazo [1,2-a]pyrido[2,1-c]pyrazin-10-one]", "values": [{"measurement": "EC50", "setting": "[1]", "value": 2600, "unit": "nM"}, {"measurement": "EC50", "setting": "[2]", "value": 4600, "unit": "nM"}, {"measurement": "EC50", "setting": "[3]", "value": 1600, "unit": "nM"}]}
{"molecule": "O=c1ccn2c(c1O)-c1nccn1C1(COC1)N2C(c1ccccc1)c1ccccc1", "note": "[Example 79, 6-benzhydryl-11-hydroxy-6H,10H-spiro[imidazo[1,2-d]pyrido[2,1-f][1,2,4]triazine-5,3′-oxetan]-10-one]", "values": [{"measurement": "EC50", "setting": "[1]", "value": 610, "unit": "nM"}, {"measurement": "EC50", "setting": "[2]", "value": 1500, "unit": "nM"}, {"measurement": "EC50", "setting": "[3]", "value": 390, "unit": "nM"}]}
{"molecule": "CNCc1cnc2n1C[C@H](C(c1ccccc1)c1ccccc1)n1ccc(=O)c(O)c1-2", "note": "[Example 61, (S)-6-benzhydryl-11-hydroxy-3-((methylamino)methyl)-5,6-dihydro-10H-imidazo[1,2-a]pyrido[2,1-c]pyrazin-10-one]", "values": [{"measurement": "EC50", "setting": "[1]", "value": 2300, "unit": "nM"}, {"measurement": "EC50", "setting": "[2]", "value": 5700, "unit": "nM"}, {"measurement": "EC50", "setting": "[3]", "value": 3400, "unit": "nM"}]}
{"molecule": "O=c1cnn2c(c1O)-c1ncc(Br)n1C[C@@H]2C(c1ccc(F)cc1)c1ccc(F)cc1", "note": "[Example 47, (S)-6-(bis(4-fluorophenyl)methyl)-3-bromo-11-hydroxy-5,6-dihydro-10H-imidazo[2′,1′:3,4]pyrazino[1,2-b]pyridazin-10-one]", "values": [{"measurement": "EC50", "setting": "[1]", "value": 290, "unit": "nM"}, {"measurement": "EC50", "setting": "[2]", "value": 840, "unit": "nM"}, {"measurement": "EC50", "setting": "[3]", "value": 560, "unit": "nM"}]}
{"molecule": "CNC(=O)c1cnc2n1C[C@H](C(c1ccccc1)c1ccccc1)n1ccc(=O)c(O)c1-2", "note": "[Example 69, (S)-6-benzhydryl-11-hydroxy-N-methyl-10-oxo-5,6-dihydro-10H-imidazo[1,2-a]pyrido[2,1-c]pyrazine-3-carboxamide]", "values": [{"measurement": "EC50", "setting": "[1]", "value": 15000, "unit": "nM"}, {"measurement": "EC50", "setting": "[2]", "value": "> 50000", "unit": "nM"}, {"measurement": "EC50", "setting": "[3]", "value": 14000, "unit": "nM"}]}
